The values below are quoted from earlier work in patent US12622896B2, “Antiviral compounds, compositions and methods of use” (THE UNIVERSITY OF BRITISH COLUMBIA, priority 2019, dated 2026).

The series concerns clinical isolate (11845 INI). Particulars: cited from earlier work.

As to `C[C@@H]1CCO[C@H]2Cn3cc(C(=O)NCc4ccc(F)cc4F)c(=O)c(O)c3C(=O)N12` [Dolutegravir], the “reduction of susceptibility by G140S and Q148H substitutions” value is recorded as “up to 10 fold”.
